According to publication PMC4336329 (PLoS ONE, 2015):
In all, about 310,000 compounds went through this assay and about 2,200 (0.71%) showed an effect of 50% or more. The effect is printed as a negative number. The list shows a part of the results.

These compounds were tested against human ether-à-go-go-related gene (hERG) potassium channel (human, UniProt Q12809) (assay: primary screen, population patch clamp on CHO cells stably expressing hERG).
human ether-à-go-go-related gene (hERG) potassium channel, sequence (Q12809 whole entry, looked up): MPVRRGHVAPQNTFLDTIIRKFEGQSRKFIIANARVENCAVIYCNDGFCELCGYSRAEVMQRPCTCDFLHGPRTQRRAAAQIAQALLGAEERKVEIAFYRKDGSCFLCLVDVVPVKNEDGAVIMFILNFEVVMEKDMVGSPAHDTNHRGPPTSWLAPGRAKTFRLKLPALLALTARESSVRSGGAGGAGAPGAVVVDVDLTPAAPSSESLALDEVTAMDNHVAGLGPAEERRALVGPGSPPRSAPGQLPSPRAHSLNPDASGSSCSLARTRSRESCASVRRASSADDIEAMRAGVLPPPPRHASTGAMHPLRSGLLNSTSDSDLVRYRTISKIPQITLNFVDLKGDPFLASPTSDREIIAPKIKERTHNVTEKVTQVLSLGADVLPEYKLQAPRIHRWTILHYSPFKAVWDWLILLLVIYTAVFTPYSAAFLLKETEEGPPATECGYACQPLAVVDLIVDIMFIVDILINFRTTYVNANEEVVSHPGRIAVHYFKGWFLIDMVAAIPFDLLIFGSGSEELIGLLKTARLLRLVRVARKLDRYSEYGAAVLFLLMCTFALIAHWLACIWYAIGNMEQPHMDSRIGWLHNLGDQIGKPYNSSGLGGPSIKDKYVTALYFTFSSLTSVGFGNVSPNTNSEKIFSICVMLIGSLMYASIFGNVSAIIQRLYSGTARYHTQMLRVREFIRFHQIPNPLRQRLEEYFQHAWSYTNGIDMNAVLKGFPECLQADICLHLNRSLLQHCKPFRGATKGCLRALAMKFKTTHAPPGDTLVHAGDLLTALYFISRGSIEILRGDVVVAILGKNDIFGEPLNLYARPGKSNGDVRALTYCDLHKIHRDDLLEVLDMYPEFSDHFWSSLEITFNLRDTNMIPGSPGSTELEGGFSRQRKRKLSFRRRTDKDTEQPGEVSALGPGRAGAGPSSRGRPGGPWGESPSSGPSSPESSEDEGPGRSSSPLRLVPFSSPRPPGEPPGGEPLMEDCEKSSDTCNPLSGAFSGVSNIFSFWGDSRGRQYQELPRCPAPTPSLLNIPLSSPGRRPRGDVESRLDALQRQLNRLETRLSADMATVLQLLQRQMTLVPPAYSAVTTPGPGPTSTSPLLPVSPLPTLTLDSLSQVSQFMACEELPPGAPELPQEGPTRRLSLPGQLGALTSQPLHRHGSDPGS

In order of rising “hERG current change (%, negative = inhibition) at 1uM” value:
1. CSc1ccc(CN2CCN(C(=O)c3ccc([N+](=O)[O-])cc3)CC2)cc1.O=C(O)C(=O)O  -78.1%
2. O=C(Nc1ccc(Cl)c(Cl)c1)N1CCC(N2CCCCC2)CC1  -36.3%
3. COc1ccc(N2CCN(C(=O)c3ccc(SC)cc3OC)CC2)cc1  -34.5%
4. CC(=O)N1CCN(c2nc3ccc([N+](=O)[O-])cc3s2)CC1  -23.4%
5. N#C/C(=C\N1CCN(Cc2ccc3c(c2)OCO3)CC1)c1nc2ccccc2s1  -16.4%
6. COc1cc2c(cc1OC)CN(Cc1cccs1)CC2  -14.9%
7. COc1cc(NC(=O)CCc2ccccc2)nc(OC)n1  -14.1%
8. COc1ccc(CNC(=O)C2COc3ccccc3O2)c(OC)c1 (centres unmarked)  -12.8%
9. CSCCC(NC(=O)c1ccccc1Br)C(=O)NCC(c1ccco1)N1CCCCC1 (centres unmarked)  -12.2%
10. COc1ccc(C(=O)N2CCC(C(=O)Nc3cccc(C)c3)CC2)cc1OC  -9.67%
11. COc1cc(C2C(C#N)=C(N)OC3=C2C(=O)CCC3)cc(OC)c1OC(=O)N1CCOCC1 (centres unmarked)  -8.34%
12. CCO[C@H]1OC(C(=O)NCc2ccccc2)=C[C@@H](c2cn(C(C)=O)c3ccccc23)[C@@H]1CCCO  -8.22%
13. O=C(c1ccc(S(=O)(=O)N2CCCCCC2)cc1)N1CCN(c2ccccc2F)CC1  -5.61%
14. COc1ccc(Cl)cc1C(=O)NCC(c1ccco1)N1CCCC1 (centres unmarked)  -5.3%
15. COC(=O)c1cc(C(=O)c2cccc(Cl)c2Cl)cn1C  -5.2%
16. CCn1c(SCC(=O)NCc2ccccc2)nc2ccccc2c1=O  -5.06%
17. Cc1noc(C)c1S(=O)(=O)N(CC(=O)N1CCn2c1nc1ccccc12)c1ccc(C(C)C)cc1  -4.05%
18. COc1ccc(Oc2nc3ccccc3nc2C(F)(F)F)cc1  -3.01%
19. COc1ccc(-n2c(CN3CCN(Cc4ccccc4)CC3)nc3ccc([N+](=O)[O-])cc3c2=O)c(OC)c1  -2.62%
20. O=S(=O)(c1ccccc1)c1cnn(-c2ccccc2)c1-c1ccc(F)cc1  -1.73%
21. CCc1nnc(NC(=O)C2CCCN(c3nc4ccccc4s3)C2)s1 (centres unmarked)  -1.41%
22. COc1ccc(C(=O)N2CCN=C2SC)cc1  -1.26%
23. CCn1cc(S(=O)(=O)c2ccc(OC)cc2)c(=O)c2cc(F)c(N3CCN(C)CC3)cc21  -0.995%
24. CCN1C(=O)CSc2ccc(C(=O)NC3CCCCC3)cc21  -0.69%
25. O=C(COc1ncnc2c(Cl)cc(Cl)cc12)N1CCCCC1  -0.238%
26. C/C(=N\NC(=O)COc1ccc(C(C)(C)C)cc1)c1ccc(N2CCOCC2)cc1  0.176%
27. C=CCNc1nnc(Sc2ncccc2[N+](=O)[O-])s1  0.269%
28. CCOc1ncccc1C(=O)OCC(=O)Nc1cc(S(=O)(=O)N2CCOCC2)ccc1Cl  0.816%
29. Nc1c(-c2cccc(Cl)c2)cnn1-c1cccc(C(F)(F)F)c1  1.2%
30. NC(=O)c1cccnc1Oc1ccc(Cl)cc1Cl  2.2%
31. COCCOc1cc(-n2ccnc2SC)c(Cl)cc1Cl  2.27%
32. O=C(O)c1ccc(NS(=O)(=O)c2ccc(Cl)c(Cl)c2)cc1O  2.76%
33. CCOC(=O)N1CCN(C(=O)COC(=O)c2ccc(S(=O)(=O)N(CC)CC)cc2)CC1  2.87%
34. COc1ccc(C(=O)CC2C(=O)N(C)C(=O)N(C)C2=O)cc1  3%
35. Cc1cc(C)cc(NC(=O)c2oc3ccccc3c2COc2ccccc2)c1  4.28%
36. CCCN(CC(=O)Nc1ccccc1OC)C(=O)c1cccc(S(=O)(=O)Nc2ccc(OC)cc2)c1  4.66%
37. CCCCOCCCNC(=O)CCCOc1ccccc1  5.94%
38. COc1ccc(C2C(C(=O)O)CC(=O)N2C2CCCCC2)cc1 (centres unmarked)  6.04%
39. CN(CC(=O)Nc1cccc(F)c1)C(=O)CCc1nc2cc(S(=O)(=O)N3CCOCC3)ccc2n1C  6.21%
40. CCCSc1ccc(-c2nn(-c3ccccc3)cc2/C=C(/C#N)C(=O)N2CCOCC2)cc1  7.13%
41. Cc1ccc2c(c1)C(=O)OC1(O)C3C4C=CC(C4)C3C(=O)N21 (centres unmarked)  7.25%
42. COc1ccc(Cn2c(C)c(C)c(C#N)c2NC(=O)Nc2ccc(F)cc2)cc1  7.3%
43. O=[N+]([O-])c1ccc(C[n+]2c(-c3ccccc3)cc(-c3ccccc3)cc2-c2ccccc2)cc1.[O-][Cl+3]([O-])([O-])[O-]  7.61%
44. S=C1NC(c2ccccc2)=CC(c2ccccc2)N1 (centres unmarked)  8.01%
45. Nc1c(C(=O)Nc2ccccc2F)sc2nc(Cc3ccccc3)cc(C(F)(F)F)c12  8.22%
46. Cl.NCCS  8.37%
47. Cc1cc(C)c(C(=O)Cn2cnc3cc([N+](=O)[O-])ccc3c2=O)cc1C  8.64%
48. COc1cc2c(cc1OC)CN(C(=O)/C=C/c1cccc([N+](=O)[O-])c1)CC2  8.85%
49. CCC(C)Nc1nc(OCC(F)(F)F)nc(OCC(F)(F)F)n1 (centres unmarked)  8.89%
50. CN(C(=O)COC(=O)c1cn(-c2ccccc2)nc1-c1ccccc1)C1CCS(=O)(=O)C1 (centres unmarked)  9.05%
51. CC(/C=N/n1c(-c2ccc(C)cc2)n[nH]c1=S)=C\c1ccco1  9.27%
52. NNCCc1ccccc1.O=S(=O)(O)O  9.6%
53. Cn1c(CCc2ccccc2)n[nH]c1=S  9.71%
54. Cc1cc(C)cc(C(=O)OCC(=O)Nc2ncccn2)c1  9.73%
55. CN1C(=O)/C(=N/OC(=O)c2ccccc2Br)c2ccccc21  9.78%
56. CCOC(=O)N1CCN(S(=O)(=O)c2cc(OCC(N)=O)c(C)cc2Cl)CC1  10.1%
57. O=C(Nc1ccccc1C(=O)Nc1ccccc1)c1ccco1  10.4%
58. Cc1ccccc1NC(=O)C(=O)NNC(=O)COc1ccc2ccccc2c1  10.8%
59. COCCOC(=O)c1c(NC(=O)CNc2ccc(C)c(F)c2)sc(C(N)=O)c1C  11%
60. Cc1ccc(-n2cc(-c3ccccc3)c3c(N4CCN(C)CC4)ncnc32)cc1  11%
61. Cc1ccc(S(=O)(=O)N2CCN(C(=O)CSc3ncc(C(F)(F)F)cc3Cl)CC2)cc1  11.1%
62. CC(C)OP(=O)(OC(C)C)C(Nc1ccccc1)c1cccc2c1OCO2 (centres unmarked)  11.2%
63. NC(=O)c1cc(Cl)ccc1OCC(=O)N1CCCc2ccccc21  11.4%
64. Cc1cc(C(=O)N/N=C2\CCCC(C)C2)n[nH]1 (centres unmarked)  11.6%
65. COc1cc(CCC(=O)NNC(=O)c2ccc(Cl)cc2)cc(OC)c1OC  11.7%
66. COc1ccc(C(=O)CC(=O)Nc2ccc([N+](=O)[O-])cc2)cc1  11.7%
67. CCC1Oc2nc(SC)nnc2-c2ccccc2N1C(=O)c1ccccc1 (centres unmarked)  11.8%
68. CCn1c(C)c(C(C)=O)c(N2CCN(c3cccc(Cl)c3)CC2)nc1=S  12.1%
69. NC(=O)c1cccnc1Nc1ccccc1F  12.4%
70. O=C(COC(=O)C1CCN(c2ccc(C(F)(F)F)cn2)CC1)Nc1cccc(F)c1  13.1%
71. CCOc1ccc(NC(=O)CN(C)C(=O)c2cc(S(=O)(=O)N3CCCCC3)ccc2Cl)cc1OCC  13.4%
72. O=C(Cc1n[nH]c(=O)c2ccccc12)OCC(=O)c1ccccc1Cl  13.4%
73. COc1ccc(C)cc1S(=O)(=O)N(C)CC(=O)NC1CCCCCC1  13.6%
74. O/N=C/c1cc2ccccc2n1Cc1ccccc1F  13.7%
75. COc1ccc(Br)cc1CN(C)C(=O)c1ccc2c(c1)NC(=O)C(C)S2 (centres unmarked)  14.4%
76. Cc1cc(C)n2nc(-c3sccc3-n3c(C)ccc3C)cc2n1  14.5%
77. CC(C)Nc1nc(-c2ccncc2)nc(-c2ccccc2)c1C#N  14.8%
78. CC(=O)Nc1ccc(C(=O)n2nc(C)cc2C)cc1  15.9%
79. O=C(NC(Cc1ccccc1)C(=O)O)/C(=C/c1ccco1)NC(=O)c1cccc([N+](=O)[O-])c1 (centres unmarked)  16.8%
80. Cc1ccc(S(=O)(=O)N2CC3CCCN3c3ccc(C(F)(F)F)cc32)cc1 (centres unmarked)  17%
81. C=CCNc1nc(Cl)nc(NCc2ccco2)n1  17.4%
82. CCOc1ccc(NC(=O)N2CCN(c3nc4ccccc4s3)CC2)cc1  17.5%
83. S=C(NCCc1ccccc1)N/N=C/c1cccc(Cl)c1Cl  17.5%
84. O=C(COc1ccccc1)N1CCCC1  19%
85. Cc1c(C#N)c(O)[nH]c(=O)c1N=Nc1ccc(Br)cc1C(=O)O  22.1%
86. CCOc1ccc(CCNC(=O)Cc2ccc(NC3=NC4CS(=O)(=O)CC4S3)cc2)cc1OCC (centres unmarked)  34.2%
